Numbering of substitutions follows the chain as printed; changes in the protein carry UniProt numbers. Some of the results follow.

The results in this text go back to paper PMC9911399, “Two distinct binding modes provide the RNA-binding protein RbFox with extraordinary sequence specificity”.

The labels stand for the following.
T1: RBFOX1 RRM (Homo sapiens, UniProt Q9NWB1 109-208)
T1 sequence: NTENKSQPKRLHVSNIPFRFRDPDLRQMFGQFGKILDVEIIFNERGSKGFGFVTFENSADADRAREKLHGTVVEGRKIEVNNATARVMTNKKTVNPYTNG

B1: AGAGACG (DNA:RNA)
RNA: GGGAGACCGGAAUUCAGAUUGUCCAGAGACGUUAAAUCCCGUCGUAGCCACCA
DNA 1: CAATCTGAATTCCGGTCTCCC
DNA 2: TGGTGGCTACGACGGGATT
B2: CGAGGUA (DNA:RNA)
RNA: B1 RNA with A25C, A29G, C30U, G31A
DNA 1: CAATCTGAATTCCGGTCTCCC
DNA 2: TGGTGGCTACGACGGGATT
B3: CGUAGCC (DNA:RNA)
RNA: B1 RNA with A25C, A27U, G28A, A29G, G31C
DNA 1: CAATCTGAATTCCGGTCTCCC
DNA 2: TGGTGGCTACGACGGGATT
B4: GGAACGG (DNA:RNA)
RNA: B1 RNA with A25G, G28A, A29C, C30G
DNA 1: CAATCTGAATTCCGGTCTCCC
DNA 2: TGGTGGCTACGACGGGATT
B5: GCAUGGU (DNA:RNA)
RNA: B1 RNA with A25G, G26C, G28U, A29G, C30G, G31U
DNA 1: CAATCTGAATTCCGGTCTCCC
DNA 2: TGGTGGCTACGACGGGATT
B6: AAUGCCA (DNA:RNA)
RNA: B1 RNA with G26A, A27U, A29C, G31A
DNA 1: CAATCTGAATTCCGGTCTCCC
DNA 2: TGGTGGCTACGACGGGATT
B7: GCCCACA (DNA:RNA)
RNA: B1 RNA with A25G, G26C, A27C, G28C, G31A
DNA 1: CAATCTGAATTCCGGTCTCCC
DNA 2: TGGTGGCTACGACGGGATT
B8: GUGUCAG (DNA:RNA)
RNA: B1 RNA with A25G, G26U, A27G, G28U, A29C, C30A
DNA 1: CAATCTGAATTCCGGTCTCCC
DNA 2: TGGTGGCTACGACGGGATT
B9: AAUUUUA (DNA:RNA)
RNA: B1 RNA with G26A, A27U, G28U, A29U, C30U, G31A
DNA 1: CAATCTGAATTCCGGTCTCCC
DNA 2: TGGTGGCTACGACGGGATT
B10: CAAACAU (DNA:RNA)
RNA: B1 RNA with A25C, G26A, G28A, A29C, C30A, G31U
DNA 1: CAATCTGAATTCCGGTCTCCC
DNA 2: TGGTGGCTACGACGGGATT
B11: CCUUCUG (DNA:RNA)
RNA: B1 RNA with A25C, G26C, A27U, G28U, A29C, C30U
DNA 1: CAATCTGAATTCCGGTCTCCC
DNA 2: TGGTGGCTACGACGGGATT
B12: ACUUCUU (DNA:RNA)
RNA: B1 RNA with G26C, A27U, G28U, A29C, C30U, G31U
DNA 1: CAATCTGAATTCCGGTCTCCC
DNA 2: TGGTGGCTACGACGGGATT
B13: AUUGUUC (DNA:RNA)
RNA: B1 RNA with G26U, A27U, A29U, C30U, G31C
DNA 1: CAATCTGAATTCCGGTCTCCC
DNA 2: TGGTGGCTACGACGGGATT
B14: GUUCGUU (DNA:RNA)
RNA: GGGAGACCGGAAUUCAGAUUGUCCGUUCGUUUUAAAUCCCGUCGUAGCCACCA
DNA 1: CAATCTGAATTCCGGTCTCCC
DNA 2: TGGTGGCTACGACGGGATT
B15: GUUGAGU (DNA:RNA)
RNA: B14 RNA with C28G, G29A, U30G
DNA 1: CAATCTGAATTCCGGTCTCCC
DNA 2: TGGTGGCTACGACGGGATT
B16: AAGGGGU (DNA:RNA)
RNA: B1 RNA with G26A, A27G, A29G, C30G, G31U
DNA 1: CAATCTGAATTCCGGTCTCCC
DNA 2: TGGTGGCTACGACGGGATT
B17: GAAUAAC (DNA:RNA)
RNA: B1 RNA with A25G, G26A, G28U, C30A, G31C
DNA 1: CAATCTGAATTCCGGTCTCCC
DNA 2: TGGTGGCTACGACGGGATT
B18: AGUCGGC (DNA:RNA)
RNA: B14 RNA with G25A, U26G, U30G, U31C
DNA 1: CAATCTGAATTCCGGTCTCCC
DNA 2: TGGTGGCTACGACGGGATT
B19: AAUGUCC (DNA:RNA)
RNA: B1 RNA with G26A, A27U, A29U, G31C
DNA 1: CAATCTGAATTCCGGTCTCCC
DNA 2: TGGTGGCTACGACGGGATT
B20: CGCCCCG (DNA:RNA)
RNA: B1 RNA with A25C, A27C, G28C, A29C
DNA 1: CAATCTGAATTCCGGTCTCCC
DNA 2: TGGTGGCTACGACGGGATT

For this assay, the target named is T1, RBFOX1 RRM. The assay can be described thus: EMSA; HiTS-Eq, 1 nM pool, 10 min; buffer printed only for the single-RNA assays: 10 mM Tris pH 7.5, 150 mM NaCl, 3.4 mM EDTA, 0.001% NP-40, 30 C. As to conditions: tags: His6 N-terminal (pET28a); label: 5' 32P. Summed up: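 Relative association constants, normalised to the cognate motif, were derived by comparing read counts of each RNA species with those of the control reaction. The RNA sequenced was the free fraction, separated by 8% native PAGE after a 10 min equilibration in 50 µL of 1 nM 5′-radiolabelled RNA (7 randomized nucleotides) with increasing concentrations of purified wild-type or mutant RbFox RRM.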
In general terms: In EMSA bound probe runs differently from free probe, usually more slowly.
On to B1, for which the binding signal is 0.00818 KA relative to UGCAUGU. Take B2: the binding signal was 0.00788 KA relative to UGCAUGU. Take B3: the binding signal was 0.00773 KA relative to UGCAUGU.

With B4, the binding signal is 0.0213 KA relative to UGCAUGU. For B5 the value was 0.558 KA relative to UGCAUGU. Turning to B6, the binding signal is 0.00821 KA relative to UGCAUGU. As for B7, the binding signal was 0.00319 KA relative to UGCAUGU. As to B8, the binding signal is 0.0123 KA relative to UGCAUGU. Under B9 stands 0.00343 KA relative to UGCAUGU; under B10, 0.000358 KA relative to UGCAUGU. For B11 the value was 0.0115 KA relative to UGCAUGU; for B12, 0.00593 KA relative to UGCAUGU; for B13, 0.0108 KA relative to UGCAUGU. For B14 the value was 0.0192 KA relative to UGCAUGU; for B15, 0.0187 KA relative to UGCAUGU.

For the molecule B16, the binding signal was 0.0118 KA relative to UGCAUGU. With B17, the binding signal was 0.00336 KA relative to UGCAUGU. Take B18: the binding signal was 0.0059 KA relative to UGCAUGU.

As to B19, the binding signal was 0.00604 KA relative to UGCAUGU.

Take B20: the binding signal was 0.007 KA relative to UGCAUGU.
